According to PMC12040169 (PLOS Biology, 2025):
This is one part of the list.

These compounds were tested on T1, C. trachomatis L2/434/Bu expressing GFP (CTL2-GFP). Conditions: total inclusion area; 28.5 h, 10 µM; inhibitor.
T1 construct: L2/434/Bu GFP intracellular growth in HeLa cells
Design: species or system HeLa; C. trachomatis total inclusion area by high-content imaging, normalised to DMSO
How it was run: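 Following bulk GFP and resorufin fluorescence reads, infected cells were fixed, Hoechst-stained and imaged on a high-content platform. Inclusion total area and number per well served as growth proxies; nuclei counts indicated host viability. MICs were derived as for the fluorescence assay.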

Structure (SMILES) | % of control remaining
O=[N+]([O-])c1ccc(CN2CCN(Cc3c[nH]c4ccccc34)CC2)cc1 [CBK218620] | 88.8982
Nc1ncncc1-c1noc([C@@H]2CCCN2c2ncccn2)n1 [CBK288901] | 102.547
CC(=O)N1CC[C@H](c2nc3cccc(C(N)=O)c3[nH]2)C1 [CBK289415] | 123.955
O=[N+]([O-])c1ccc(/C=C/c2nn3c(Cn4cnc5ccccc54)nnc3s2)cc1 [CBK268273] | 111.763
CCOC(=O)N1CCC(NC(=O)N2CCCC(CO)C2)CC1 (stereo not drawn) [CBK156345] | 69.7181
COc1ccc2ncc3c(c2c1)NCCNC3=O [CBK291168] | 96.9026
COc1ccccc1-c1cnccc1-n1ccnc1 [CBK177153] | 68.4272
Fc1ccc2[nH]c3c(c2c1)CCN1C(c2ccncc2)N2CCC31CC2 (stereo not drawn) [CBK284437] | 59.4032
Nc1cc2ccccc2c(-c2ccc3c(c2)OCCCO3)n1 [CBK085722] | 80.0825
Nc1nc(-c2ccccc2)c(C(=O)Nc2ccccc2)s1 [CBK058068] | 60.444
COc1ccc2c(c1)CCc1sc(NS(=O)(=O)c3cccc(Cl)c3C)nc1-2 [CBK200033] | 82.6259
CC(C)c1cc(C(=O)N(Cc2ccccn2)CC2CCCO2)on1 (stereo not drawn) [CBK306579] | 104.86
S=C(NCc1ccco1)Nc1nn(Cc2ccc(Cl)cc2Cl)cc1Cl [CBK267021] | 102.922
COc1ccc(-n2nc(C)c3onc(C)c3c2=O)cc1 [CBK000853] | 85.9007
Cc1cc(C)c2c(c1)-c1c(ssc1=S)C(C)(C)N2C(=O)CSc1nncn1C [CBK263035] | 84.404
CCNC(=O)N[C@H]1[C@H](O)[C@@H](N(CC)CC)[C@@H]2OC[C@H]1O2 [CBK288816] | 102.685
COc1ccc(-c2nc(CCN)n3ccccc23)cc1 [CBK035583] | 101.044
O=S(=O)(c1ccc(F)cc1)N1CCCC1c1cccc(Cc2cccc(F)c2)n1 (stereo not drawn) [CBK286209] | 98.9588
C/C(=N\NC(=O)c1cccc(Cl)c1)c1ccccc1O [CBK261665] | 48.5997
COc1cc(CN2CCN(C(=O)c3cccc(F)c3)CC2)cc(OC)c1O [CBK074633] | 67.4281
Cc1onc(-c2ccccc2Cl)c1C(=O)Nc1ccc(S(=O)(=O)N2CCC(C)CC2)cc1 [CBK265463] | 75.6885

Structure (SMILES) | % of control remaining
CCN1CCOC(CNCc2ccc(OCC(N)=O)cc2)C1 (stereo not drawn) [CBK305108] | 77.7368
CC(C)C(=O)Nc1cccc(NC(=O)COc2ccc(Br)cc2)c1 [CBK265211] | 54.6411
Cc1csc(NC(=O)CSc2ccc3nnc(-c4ccccc4)n3n2)n1 [CBK287517] | 113.022
CCn1nc(C)c(-c2cncn2CCCOc2cccc(C)c2)c1C [CBK281997] | 117.386
Cc1cc(-c2cn3ccnc3c(NC3CC3)n2)cc(C)c1O [CBK066747] | 68.8554
O=C(O)c1cc(S(=O)(=O)Nc2ccc(F)cc2)c(Cl)cc1Cl [CBK113685] | 84.7623
CN1CCN(CCOC(=O)N2CCSCC2)CC1 [CBK200288] | 94.2134
CCN1CCN(C(=O)c2ccc3nc(-c4ccccc4)c(-c4ccccc4)nc3c2)CC1 [CBK269090] | 44.6826
Cc1csc(Sc2nc3ccccc3nc2C(F)(F)F)n1 [CBK093775] | 97.8438
O=C(CN1CCOCC1)Nc1c2c(nc3ccccc13)N(c1ccccc1)CC2 [CBK111136G] | 84.9377
COc1ccc(Cl)cc1C(=O)O/N=C(\N)Cc1cccc2ccccc12 [CBK266275] | 97.0877
NC1=NNC2=C(c3ccc(F)cc3)NNN12 [CBK093659] | 97.4454
O=C(CCNc1n[nH]c(=O)[nH]c1=O)N/N=C\c1ccccc1F [CBK263093] | 102.233
Cc1ccc(-c2csc3ncnc(NCCCc4n[nH]c(N)c4C#N)c23)cc1 [CBK297100] | 89.0018
CC(OC(=O)c1ccc(O)cc1)C(=O)Nc1ccc(Cl)c(Cl)c1 (stereo not drawn) [CBK264281] | 83.0147
Cc1ccc(S(=O)(=O)NC2c3cccc4cccc(c34)C2Sc2nnc(N)s2)cc1 (stereo not drawn) [CBK265835] | 118.322
CS(=O)(=O)N1CCc2c([nH]c3ccccc23)C12CCN(Cc1ccccc1)C2 (stereo not drawn) [CBK059460] | 97.8542
CCCc1ccc(S(=O)(=O)Nc2ccc(C(=O)N(CC)CC)cc2)cc1 [CBK034403] | 85.3267
CN(C)CCCNc1oc(/C=C/c2cccs2)nc1C#N [CBK269317] | 100.5
CC(=O)NC[C@H]1CN(c2ccc3c(c2)CCSC3)C(=O)O1 [CBK018505] | 3.2688
COc1cccc(CN2CCN(CCc3ccccc3)CC2)c1 [CBK126454] | 97.5355

Structure (SMILES) | % of control remaining
Cc1cccc(OCC2CCCN(C(=O)NCCc3cnn(C)c3)C2)c1 (stereo not drawn) [CBK307358] | 49.631
Cc1cccc(Nc2nc(N)nc(CSc3nccn3C)n2)c1 [CBK266105] | 84.377
CCn1cnnc1SCC(=O)Nc1ccc(CN2CCOCC2)cc1 [CBK305072] | 49.9369
O=c1[nH]nc2c(Sc3cccc(F)c3)nccn12 [CBK288508] | 29.732
COc1ccccc1NC(=O)N1C[C@@H]2C[C@H](C1)c1c(-c3cccs3)ccc(=O)n1C2 [CBK289191] | 72.3683
CN(C)C(=S)Oc1ccc2[nH]c3c(c2c1)CCNC31CCN(CCOc2ccccc2)C1 (stereo not drawn) [CBK105748] | 63.9944
CSc1nc2ccc(S(=O)(=O)N3CCCC3)cc2s1 [CBK268400] | 90.3378
CC(Cc1ccccn1)NC(=O)c1cc(-c2ccccc2F)no1 (stereo not drawn) [CBK281421] | 98.6578
CCCCc1cc(=O)oc2cc(OCC(=O)O)ccc12 [CBK264205] | 99.3314
COc1ccc(C(C)C)cc1-c1cnc(N)c(N2CCOCC2)n1 [CBK063384] | 92.2756
O=c1c2cn[nH]c2nc(SCc2ccc3c(c2)OCCO3)n1-c1ccccc1 [CBK266593] | 103.567
CC(=O)N1c2ccccc2C(C)(c2ccc(Br)cc2)CC1(C)C (stereo not drawn) [CBK026461] | 50.9016
OC1(Cn2cnc3ccccc32)CCN(Cc2ccc(F)cc2)CC1 [CBK284661] | 102.07
CNC(=O)CSc1nccc(C(F)(F)F)n1 [CBK107759] | 95.9701
O=C(CCc1cccnc1)N1CCCCC1c1nc2cc(F)ccc2[nH]1 (stereo not drawn) [CBK291106] | 91.7098
O=C(Cc1cccnc1)N1CCC(Cc2ccccc2)CC1 [CBK200183] | 119.584
Cc1ccccc1Cc1cccc(C2CCN(C(=O)Cc3ccccc3)CC2)n1 [CBK285625] | 105.142
CC(C)(CN)CN(Cc1ccccc1C(F)(F)F)C(=O)NCc1ccc(F)cc1 [CBK002471C] | 76.8564
COC(=O)CCC1(C)CN(C)CCC1=O (stereo not drawn) [CBK028494] | 85.3785
O=C(O)c1nccnc1C(=O)N1CCC(O)(c2ccc(Cl)cc2)CC1 [CBK286621] | 77.8602
Cc1nn(C)c2nc(NCc3ccc(C(=O)N4CCCCC4)cc3)sc12 [CBK306826] | 27.0349

Structure (SMILES) | % of control remaining
CC1=C[C@@H](CNC(=O)c2ccncc2)[C@H](C(C)C)C[C@H]1CC(=O)N1CCOCC1 [CBK289052] | 104.083
Cn1c(SCC(=O)c2ccccc2)nnc1-c1ccc(NC(=O)c2ccccc2Cl)cc1 [CBK264357] | 109.518
O=S(=O)(CC(F)(F)F)Nc1cccc(-c2nnn[nH]2)c1 [CBK154272] | 77.4523
CCCCCCN1CCC2CN(CCCC(=O)c3ccc(F)cc3)CCN2C1=O (stereo not drawn) [CBK024890C] | 54.9883
Cc1csc(-c2cn3ccnc3c(N(C)CCN(C)C)n2)c1 [CBK066553] | 130.474
c1ccc(-c2nc(C3CC3)n3ccccc23)cc1 [CBK149257] | 93.8378
Cc1ccc(S(N)(=O)=O)cc1C(=O)OCC(=O)c1ccccc1 [CBK264588] | 85.1824
O=C1NC2(CCOCC2)C(=O)N1Cc1ncc(-c2cccs2)o1 [CBK304187] | 56.1781
C=C(C)Cn1c(=O)nc(N)c2c3c(sc21)CCC3 [CBK287986] | 104.123
c1ccc(-c2nnc(SCc3nnc(-c4ccccc4)o3)[nH]2)cc1 [CBK270003] | 100.937
COCc1cccc(-c2ncc(OCCN3CCCC3=O)nc2N)c1 [CBK145110] | 96.3656
Cc1cc(C(F)(F)F)n2ncc(C(=O)N3CCCC3c3ccco3)c2n1 (stereo not drawn) [CBK306557] | 72.8598
COc1cccc(Cc2cccc(C3CCN(C(=O)Cc4ccccc4)CC3)n2)c1 [CBK286147] | 70.5618
Cn1c(O)c(CCNc2cc(C3CCOC3)ncn2)cnc1=O (stereo not drawn) [CBK307648] | 64.4911
O=C1CN(C(=O)c2cc(-c3ccncc3)nc3ccccc23)CCN1 [CBK304370] | 51.8854
Cc1cc(/C=C(/C#N)c2ccc([N+](=O)[O-])cc2)c(C)n1-c1ccc(S(N)(=O)=O)cc1 [CBK266737] | 104.925
CN(Cc1ccc(-c2ccc(CO)cc2)nc1)C1CCN(C(=O)OC(C)(C)C)CC1 [CBK173453] | 59.1836
CC(C)(C)C(=O)N1CCc2c([nH]c3ccccc23)C12CCNC2 (stereo not drawn) [CBK059462] | 100.48
